Source: PubChem BioAssay AID1508642 (National Center for Advancing Translational Sciences (NCATS), 2021)
Screen size: about 43,000 compounds; about 200 (0.47%) were called active. Inconclusive results (about 12%) are left out. The call rests on the fitted dose curve; in most records, active means well fitted cell-killing curve with a large enough effect; inconclusive means small, poorly fitted or top-dose-only effect, or effect the other way; inactive means flat fitted curve, though single readings scatter. The list shows a part of the results.

Assay: Cell viability qHTS assay in S16 Pmp22-F2sN cells; further: nearly all actives have a fitted effect of over 65% in size
Details: S16 Pmp22-F2sN Schwann cells (luciferase reporters placed in the Pmp22 gene) viability, CellTiter-Glo, 24 h; series mostly up to 57.5 µM; activity change, negative = cytotoxicity: at the top concentration
Method in brief: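 CellTiter-Glo counter-screen, qHTS, 1536-well. Cells: S16(c9) Pmp22-F2sN, 500-1,000/well in DMEM + 10% FBS. Cpd 23 nL pin transfer, 24 h, 37C/5% CO2. Read: luminescence, CCD imager.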
On the % scale 0 is the no-effect control and ±100 the full control effect.

SMILES	activity change, negative = cytotoxicity
Cc1nc2ncnn2c(C)c1CCC(=O)NCc1cccc(Cl)c1	inactive: 1.05%
Cc1ccc(NC(=O)c2cc(S(=O)(=O)N3CCCCC3)c[nH]2)cc1F	inactive: -6.65%
COc1ccc(C2C=C(c3ccccc3)Nc3nc(NC(=O)/C=C/c4ccc(Cl)cc4)nn32)cc1 (configuration not stated)	inactive: 10.3%
CCC(=O)N1CCc2cc(S(=O)(=O)CCC(=O)NCc3ccc(OC)cc3)ccc21	inactive: 6.74%
O=C(CSc1nc2c(cnn2-c2ccc(F)cc2)c(=O)[nH]1)Nc1ccccc1C(F)(F)F	inactive: -0.333%
COc1ccccc1N1CCN(C(=O)c2cc3c(=O)oc4ccccc4c3s2)CC1	inactive: -10.1%
COc1ccccc1NC(=O)C1=C(C)Nc2nc(SCc3cccc(F)c3)nn2C1c1ccc(C(=O)O)cc1 (configuration not stated)	inactive: -1.04%
O=C(c1cccc(Cl)c1)N1CCC(c2nc3ccccc3o2)CC1	inactive: -5.63%
O=C(Cn1c(=O)n2nc(-c3cccc(F)c3)nc2c2ccccc21)N1CCN(c2ccccc2F)CC1	inactive: 2.33%
CC1CCN(C(=O)C(C)Sc2nc(-c3ccccc3)cc(C(F)(F)F)n2)CC1 (configuration not stated)	inactive: -26%
COc1ccc(OC)c(NC(=O)c2c(C)oc3ncnc(N4CCOCC4)c23)c1	inactive: -1.85%
Cc1cccc(-c2nc(SCC(=O)N(C)c3ccccc3)c3c(=O)n(C)c(=O)n(C)c3n2)c1	inactive: -3.31%
CCCN1C(=O)C2(c3ccccc31)c1c(oc3ccccc3c1=O)C(=O)N2CCCOC(C)C (configuration not stated)	inactive: -4.43%
O=C(O)c1ccc(C2Nc3ccccc3-c3nnc(SCc4ccc(Cl)cc4)nc3O2)cc1 (configuration not stated)	inactive: 12.5%
Cn1c(=O)cc(SCC(=O)N2CCN(c3ccccc3)CC2)c2ccccc21	inactive: -11.8%
COc1cc(OC)c(NC(=O)N2CC=C(c3c[nH]c4ccccc34)CC2)cc1Cl	inactive: -4.25%
COc1cccc(C(=O)Nc2ccc(C(=O)OCc3cc(=O)n4nc(C5CC5)sc4n3)cc2)c1	inactive: -0.822%
Cc1ccc(-c2cc(C(F)(F)F)n3ncc(-c4ccc(Cl)cc4)c3n2)cc1	inactive: 4.68%
CCOC(=O)C1CCN(C(=O)c2ccc3c(c2)N=C(CC)c2cc(C)ccc2S3)CC1	inactive: -13.2%
CCCCn1c(=O)nc2n(-c3ccc(F)cc3)c3ccccc3cc-2c1=O	inactive: 13%
CC(Sc1nc2c([nH]c3ccccc32)c(=O)n1-c1ccccc1)c1ccccc1 (configuration not stated)	inactive: 18.3%
Cc1cc(F)ccc1NC(=O)CCSc1nc(-c2ccco2)cc(C(F)(F)F)n1	inactive: -26.9%
COC(=O)COc1ccc(Oc2nc(NC(C)(C)C)nc(N(C)C)n2)nn1	inactive: -2.06%
COc1ccc(-c2cc3ccc(O)c(CN4CCCC4)c3oc2=O)cc1OC	inactive: -12.6%
Cc1ccc(C)c(CNC(=O)c2sc3ncnc(N(C)C4CCCCC4)c3c2C)c1	inactive: 4.38%

SMILES	activity change, negative = cytotoxicity
CCn1c(CC2C(=O)N(C)c3ccc(Br)cc32)nc2ccccc2c1=O (configuration not stated)	inactive: -20.6%
CCc1cc2c(cc3c(=O)n(CC(=O)NCCOC)nc(CC)n32)s1	inactive: 19.1%
Cc1ccc(C(=O)NC2(C(F)(F)F)N=C(c3ccccc3)N(C3CCCCC3)C2=O)cc1 (configuration not stated)	inactive: 3.48%
COc1ccc(CNC(=O)c2cn(-c3cccc(OC)c3)c(=O)c3ccccc23)cc1	inactive: 9.66%
COc1ccc(C(=O)NCC(c2ccc3c(c2)OCO3)N2CCOCC2)cc1OC (configuration not stated)	inactive: -8.75%
COc1cc(C)ccc1OCCSc1nc2ccc(NC(C)=O)cc2s1	inactive: -0.105%
CCCCCn1c(=O)c2c(nc3n2CCN3c2ccc(Br)cc2)n(C)c1=O	inactive: 29.2%
CCOC(=O)c1ccc(NC(=O)Cn2cnc3sc(C(=O)OCC)c(C)c3c2=O)cc1	inactive: -1.82%
CCc1ccc(NC(=O)CSc2nc3c([nH]c4ccccc43)c(=O)n2-c2cccc(OC)c2)cc1	inactive: 7.4%
CCC(Sc1nnc2c3ccccc3n(C)c2n1)C(=O)Nc1nnc(C(C)C)s1 (configuration not stated)	inactive: 3.25%
CCOc1ccc(NC(=O)CSc2nc(=O)[nH]c3c2CCC3)cc1	inactive: 6.45%
O=c1c(=O)n(Cc2ccc(Cl)cc2)ccn1Cc1ccc(F)cc1	inactive: 3.02%
Cc1ccc2c(c1)-c1c(cnn1CC(=O)N1CCN(c3ccccc3F)CC1)CO2	inactive: 0.0062%
COCCCNC(=O)c1cnc2sc(N3CCCCCC3)nn2c1=O	inactive: 6.59%
COc1cccc(NC(=O)CCc2nc3c(C)nn(-c4ccc(C)cc4)c3n(C)c2=O)c1	inactive: 0.557%
CCCCN(CCCNC(=O)CN1N=C(c2ccc(C)cc2)CCC1=O)c1ccccc1	inactive: -8.48%
CCN(CC)C(=O)CSc1nc2ccsc2c(=O)n1Cc1ccccc1Cl	inactive: -3.34%
Cc1cc(C)n2c(Nc3ccc(C(C)C)cc3)c(-c3ccsc3)nc2n1	inactive: -9.98%
COc1cccc(OCC(=O)NCCS(=O)(=O)N2CCN(c3ccccc3F)CC2)c1	inactive: -4.12%
Cc1oc2ncn(CC(C)C)c(=O)c2c1C(=O)NCCc1ccccc1	inactive: -10.9%
Cc1ccc(-c2nc(CNC(=O)Nc3ccccc3)c(C)o2)cc1	inactive: -19.4%
COc1ccc(-c2cn3cccnc3n2)cc1NC(=O)Cc1ccccc1	inactive: -6.65%
Cc1ccc(NC(=O)Cn2c(=O)oc3cc(S(=O)(=O)N4CCCCC4)ccc32)c(Cl)c1	inactive: -1.97%
c1ccc(-c2noc(-c3cccnc3NCc3ccco3)n2)cc1	inactive: 21%
COCCNC(=O)Cn1c(=O)n(CCCCCC(=O)NCc2ccccc2Cl)c(=O)c2sccc21	inactive: 8.39%

SMILES	activity change, negative = cytotoxicity
Cc1c(-c2cccc(NC(=O)Nc3ccc(Cl)cc3)c2)nc2ncccn12	inactive: -7.09%
COc1ccccc1-c1noc(-c2ccc(NC3CCCCC3)c([N+](=O)[O-])c2)n1	inactive: -3.71%
CC(C)(C)C1CCc2c(sc3nc(-c4cc5ccccc5oc4=O)[nH]c(=O)c23)C1 (configuration not stated)	inactive: 18.5%
CCN(CC)CCCNC(=O)CCCn1ncn2c(cc3occc32)c1=O	inactive: 25.2%
CCOC(=O)C1CCCN(C(=O)Cn2ncc3c(C)n(Cc4ccccc4Cl)c(C)c3c2=O)C1 (configuration not stated)	inactive: -2.68%
CCc1ccc(CNC(=O)c2cc3ccccn3n2)cc1	inactive: 2.28%
CCCc1nc2ccccc2n1CC(O)COc1ccc(C(=O)OC)cc1 (configuration not stated)	inactive: 17.1%
COc1ccc(-n2c(SCC(=O)N3CCc4ccccc43)nc3c([nH]c4ccccc43)c2=O)cc1	inactive: 0.376%
COc1ccc(C(=O)Nc2ccc3oc(-c4ccc(F)cc4Cl)nc3c2)cc1	inactive: 12.1%
CC(C)(C)OC(=O)N1CCC(c2c(C(=O)N3CCN(c4ccccn4)CC3)cnn2-c2ccccc2)CC1	inactive: 6.17%
COc1ccc(-c2nc(C)c(CCNC(=O)c3cccs3)s2)cc1OC	inactive: 1.87%
COc1ccccc1CNc1cc(C)nc2nc(-c3ccc(C)cc3)nn12	inactive: 19.2%
Cc1ccc2nc(NC(=O)CSc3nccn3-c3ccc(Cl)cc3)sc2c1	inactive: -1.89%
CCC1CCCCN1S(=O)(=O)c1ccc(C(=O)Nc2sc3c(c2C(N)=O)CCC3)cc1 (configuration not stated)	inactive: -25.5%
O=C(CSc1nnc(-c2ccccc2F)o1)Nc1cccc(C(F)(F)F)c1	inactive: 12.3%
O=C(Nc1ccc(Cl)cc1F)c1cnc2sc(N3CCOCC3)nn2c1=O	inactive: 8.06%
COCCCN1C(=O)c2ccccc2CC1(C)C(=O)NC1CCCCC1 (configuration not stated)	inactive: 25.2%
COc1ccc(C2C(C(=O)Nc3ccc(Cl)cc3)=C(C)Nc3nc(SCc4cccc(C)c4)nn32)cc1OC (configuration not stated)	inactive: 1.48%
Cc1ccc(OCC(=O)NCC2(N(C)C)CCCCC2)cc1C	inactive: 6.77%
Cc1ccc(C)c(NC(=O)Cn2c(=O)n(-c3ccc(CC(=O)NCC4CCCO4)cc3)c(=O)c3ccccc32)c1 (configuration not stated)	inactive: -7.11%
CCCOc1ccc(C(=O)NCC2OCCc3ccccc32)cc1 (configuration not stated)	inactive: 1.3%
Cc1ccc(CNc2oc(-c3ccc(COc4ccc(C)cc4)o3)nc2C#N)cc1	inactive: -6.41%
Cc1ccc(NC(=O)c2c(C)nc3sc(C(=O)Nc4ccc(F)cc4)c(N)c3c2-c2ccc(C)o2)c(C)c1	inactive: 1.56%
Cc1cc(CN2CCN(c3cccc(C)c3C)CC2)cs1	inactive: -12.7%
CCOC(=O)C1=C(CN2CCN(c3ccc(OC)cc3)CC2)NC(=O)NC1c1ccc(Cl)cc1 (configuration not stated)	inactive: -17.3%

SMILES	activity change, negative = cytotoxicity
CCOc1ccc(NC(=O)C2CCCN(S(=O)(=O)c3c(C)noc3/C=C/N(C)C)C2)cc1 (configuration not stated)	inactive: 0.418%
COc1cccc(-n2c(SCC(=O)Nc3nnc(C)s3)nc3c([nH]c4ccccc43)c2=O)c1	inactive: -14%
CC(C)Cn1c(=O)c2sccc2n2c(CCCC(=O)N3CCN(c4ccc(F)cc4)CC3)nnc12	inactive: 27.6%
Fc1ccc2[nH]c(-c3cccs3)cc2c1	inactive: 4.81%
Cc1cc(C)cc(NC(=O)c2cnc3sc(N4CCCC4)nn3c2=O)c1	inactive: -8.35%
CCOC(=O)c1c(S(=O)(=O)N2CCC(C(=O)Nc3ccc(C)cc3C)CC2)c(C)n(C)c1C	inactive: 12.8%
CCc1ccccc1NC(=O)c1nnn(Cc2ccc(Cl)cc2)c1N	inactive: -5.81%
COCCNC(=O)CSc1nc(-c2ccccc2)[nH]c1-c1ccc(OC)cc1	inactive: 1.02%
Cc1ccc(-c2nc(CSc3nncn4c3cc3occc34)c(C)o2)cc1	inactive: -0.384%
COc1ccc(C)cc1NC(=O)N1CC(C)Sc2ccccc21 (configuration not stated)	inactive: 19.4%
Cc1ccc(Cn2cc(C(=O)c3ccc4c(c3)OCO4)c(=O)c3cc(C)ccc32)cc1	inactive: -4.55%
O=C(Nc1cccc(C(F)(F)F)c1)c1cc2nc(-c3ccc4c(c3)OCO4)cc(C(F)(F)F)n2n1	inactive: -3.88%
COc1cc(NC(=O)Cn2c(=O)n(CC3CCCO3)c(=O)c3ccccc32)cc(OC)c1 (configuration not stated)	inactive: 16.6%
CCOc1ccc(CCNc2nc3ccccc3n3c(C)nnc23)cc1OCC	inactive: -2.7%
COc1ccc(C(=O)Nc2nnc(C(C)C)s2)cc1OC	inactive: 10.6%
COc1ccc2sc(N(Cc3cccnc3)C(=O)COc3ccccc3)nc2c1	inactive: 7.6%
Cc1cc(C)cc(NC(=O)Nc2nnc(N(C)C3CCCCC3)s2)c1	inactive: 4.56%
COc1ccccc1-c1noc(CCCC(=O)NCc2ccco2)n1	inactive: 9.41%
COc1ccccc1Cc1nc2ccccc2nc1SCC(=O)Nc1cc(Cl)ccc1OC	inactive: -6.27%
CC(=O)c1ccc(NS(=O)(=O)c2ccc(-c3cnc(C4CC4)o3)cc2)cc1	inactive: 6.01%
Cc1ccc(CNC(=O)c2cnn(-c3cccc(C)c3)c2C2CCN(C(=O)OC(C)(C)C)CC2)cc1	inactive: -29.6%
CCCCc1nn2c(=O)cc(COC(=O)c3ccc(NC(=O)C(CC)CC)cc3)nc2s1	inactive: 14.2%
